In all, about 110,000 compounds went through this assay and about 230 (0.21%) showed an effect of 50% or more. The list shows a part of the results.
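Also: 30 min substrate incubation versus DMSO and 10 µM JCP410 controls.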

DPAP1, sequence (Q8IIJ9 whole entry, looked up): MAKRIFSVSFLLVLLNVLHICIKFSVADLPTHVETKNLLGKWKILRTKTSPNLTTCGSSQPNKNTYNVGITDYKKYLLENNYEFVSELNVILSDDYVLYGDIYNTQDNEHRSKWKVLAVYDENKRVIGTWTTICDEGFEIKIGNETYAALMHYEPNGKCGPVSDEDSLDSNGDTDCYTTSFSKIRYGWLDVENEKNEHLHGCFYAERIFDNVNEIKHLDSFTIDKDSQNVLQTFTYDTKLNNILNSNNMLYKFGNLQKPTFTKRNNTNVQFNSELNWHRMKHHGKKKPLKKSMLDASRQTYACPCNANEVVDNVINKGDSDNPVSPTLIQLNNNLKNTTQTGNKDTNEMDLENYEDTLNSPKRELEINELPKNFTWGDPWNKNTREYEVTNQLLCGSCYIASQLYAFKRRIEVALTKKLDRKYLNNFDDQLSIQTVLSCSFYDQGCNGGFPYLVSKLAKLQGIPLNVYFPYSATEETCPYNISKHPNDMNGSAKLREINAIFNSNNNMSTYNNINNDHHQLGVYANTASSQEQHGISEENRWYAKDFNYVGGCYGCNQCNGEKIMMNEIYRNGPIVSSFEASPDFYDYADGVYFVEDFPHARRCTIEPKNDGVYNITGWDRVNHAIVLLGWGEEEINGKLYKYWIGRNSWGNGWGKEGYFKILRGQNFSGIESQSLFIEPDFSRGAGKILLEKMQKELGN

The experiment has as its target DPAP1 (Plasmodium falciparum, UniProt Q8IIJ9). The experiment is described as follows: primary screen, percent inhibition; read by cleavage of a fluorogenic dipeptide substrate; higher = more effect of the substance. On the set-up: species or system P. falciparum D10 trophozoite lysates; single well.
On to `COc1ccc(S(=O)(=O)NCC(=O)O)cc1C(=O)NC1CCCCC1`, for which the “% Inhibition @ 10 uM” value is given as -1.98%. For `CC1=C(C(=O)Nc2ccccc2)C(c2ccncc2)n2ncnc2N1` (stereo not shown), the “% Inhibition @ 10 uM” value was -2.88%. `O=C(O)c1ccc(S(=O)(=O)NC2CCCCCC2)cc1`: the “% Inhibition @ 10 uM” value is -4.29%. As for `COc1cc(C(O)c2nc3ccccc3n2C)cc(OC)c1OC` (stereo not shown), the “% Inhibition @ 10 uM” value is recorded as 3.06%.

Regarding `O=C(Nc1ccccc1)Nc1ccccc1Br`, the “% Inhibition @ 10 uM” value is 2.9%. For `Cn1c(CNc2ccc(F)cc2)nc2ccccc21`, the “% Inhibition @ 10 uM” value is -6.88%.

For the compound `COc1cc(OC)cc(C(=O)N(CCCN(C)C)c2nc3c(F)cccc3s2)c1`, the “% Inhibition @ 10 uM” value turned out to be 7.44%. The same measure for `CC(C)C[C@H](NC(=O)c1ccccc1)C(=O)NC(C#N)c1ccco1` (stereo partly shown): 0.174%; for `CCCCOc1ccc(CONC(=O)COc2ccc(Cl)cc2Cl)cc1`: 0.685%; for `CC(=O)Nc1c(C#N)c(C)n(-c2ccccc2)c1C(=O)c1ccccc1`: 3.53%. `CN(C)CCCN(C(=O)COc1ccccc1)c1nc2cc3c(cc2s1)OCCO3`: the “% Inhibition @ 10 uM” value was -2.41%.

Regarding `Cc1cccc(C)c1OCC(=O)Nc1ccc(S(N)(=O)=O)cc1`, the “% Inhibition @ 10 uM” value is -0.473%. As for `O=C(Nc1ccc(S(=O)(=O)N2CCOCC2)cc1)c1ccccc1`, the “% Inhibition @ 10 uM” value is reported as 3.24%. The same measure for `O=C(NCC1CCCO1)C1CCCN(S(=O)(=O)N2CCC3(CC2)OCCO3)C1` (stereo not shown): -1.67%; for `Cc1nc2c(C(=O)N3CCC4(CC3)OCCO4)cnn2c(C)c1Cc1cccc(Cl)c1`: 2.9%; for `CC(=O)c1cc(C#N)c(SCC(=O)Nc2cccc(C)c2)nc1C`: 2.36%. For `CCc1ccc(-c2nc(CS(=O)CC(=O)NCCN3CCCCCC3)c(C)o2)cc1` (stereo not shown), the “% Inhibition @ 10 uM” value is -0.971%. Consider `Cc1c(C)n(Cc2ccccc2)c2ccc(C(=O)NCCN3CCN(C)CC3)cc12`, for which the “% Inhibition @ 10 uM” value was 2.96%. Take `Cc1ccc(CN(C(=O)c2nc(SC(C)C)ncc2Cl)C2CCS(=O)(=O)C2)cc1` (stereo not shown): the “% Inhibition @ 10 uM” value is on record as -2.71%. Take `N#CCNC(=O)C(CCc1cccc(Cl)c1F)NC(=O)OCc1ccccc1` (stereo not shown): the “% Inhibition @ 10 uM” value is -0.207%. `Cc1ccc(Cn2c(=O)n(CCC(=O)NCc3ccco3)c(=O)c3sccc32)cc1`: the “% Inhibition @ 10 uM” value was -2.47%. `CSc1nc(O)c2cnn(-c3ccccc3)c2n1`: the “% Inhibition @ 10 uM” value is listed as -1.54%. Turning to `CCCCCOC(=O)c1c2c(n3ccc(-c4ccncc4)cc13)C(=O)c1ccccc1C2=O`, the “% Inhibition @ 10 uM” value is listed as -1.18%. Take `O=C(CCC(=O)OCCc1ccccc1)Nc1cccc([N+](=O)[O-])c1`: the “% Inhibition @ 10 uM” value is recorded as -2.62%. Take `Cc1nn(C)c(C)c1N1C(=O)c2cccc3cccc(c23)C1=O`: the “% Inhibition @ 10 uM” value is on record as -8.33%. For `CC(C)(C)c1ccccc1OCC(=O)Nc1ccc(S(=O)(=O)Nc2ccccn2)cc1`, the “% Inhibition @ 10 uM” value is -3.18%.

Take `O=C(C(c1ccccc1)c1ccccc1)N1CCN(S(=O)(=O)c2ccccc2)CC1`: the “% Inhibition @ 10 uM” value stood at 4.32%. The same measure for `CC1CCC(N2CCN(c3ncccn3)CC2)C1` (stereo not shown): 3.15%; for `CNC(=O)C(Cc1ccccc1)N1C(=O)C2C3C=CC(C3)C2C1=O` (stereo not shown): 5.81%; for `CCOc1ccccc1C(=O)Nc1nc2ccc(Cl)cc2s1`: -5.48%. With `CC1=C(CCN2CCN(C)CC2)C(C)(C)CCC1`, the “% Inhibition @ 10 uM” value worked out at 3.48%.

For the compound `Cc1ccc(O)c(-c2[nH]nc3c2C(c2cccc(O)c2)N(CCO)C3=O)c1` (stereo not shown), the “% Inhibition @ 10 uM” value is on record as -4.75%.

Take `Cc1ccc(NC(=O)C23CCC(C)(C(O)C2)C3(C)C)cc1C` (stereo not shown): the “% Inhibition @ 10 uM” value amounted to 4.31%. Consider `Cc1ccc(-c2csc(Nc3ccc4c(c3)OCO4)n2)cc1`, for which the “% Inhibition @ 10 uM” value came out at 0.345%. For `CCOc1ccccc1C1C(C(N)=O)=C(C)Nc2nc(-c3cc(OC)c(OC)c(OC)c3)nn21` (stereo not shown), the “% Inhibition @ 10 uM” value is on record as -1.47%. In the case of `Cc1cc(Cl)ccc1OCCCC(=O)Nc1cccc(F)c1`, the “% Inhibition @ 10 uM” value is -0.641%. Turning to `CC(=O)N/C(=C\c1ccccc1)C(=O)NC1CCCCC1C` (stereo not shown), the “% Inhibition @ 10 uM” value is -3.78%. In the case of `COc1cc(/C=C2\SC(NC(C)=O)=NC2=O)ccc1OCc1ccccc1F`, the “% Inhibition @ 10 uM” value came to 6.22%.

For `N#Cc1c(N)c(C(=O)c2ccccc2)n2ccccc12`, the “% Inhibition @ 10 uM” value is 1.02%. With `CCC(C)N1C(=O)S/C(=C/c2cc(C)n(-c3ccccn3)c2C)C1=O` (stereo not shown), the “% Inhibition @ 10 uM” value is -5.34%. On to `Cn1ccnc1C(O)c1ccc2c(c1)OCO2` (stereo not shown), for which the “% Inhibition @ 10 uM” value is -0.233%. The same measure for `CCCN(CCC)CCNC(=O)c1cnn(-c2ccc(F)cc2)c1-n1cccc1`: 1.11%; for `CCOC(=O)c1cnn(-c2ccc(OC)cc2)c1C1CCNCC1`: 0.708%. On to `O=C(c1cccs1)N1CCN(C(=O)C(c2ccccc2)c2ccccc2)CC1`, for which the “% Inhibition @ 10 uM” value is given as -1.6%. On to `CC(=O)c1ccc(NC(=O)c2cccs2)cc1`, for which the “% Inhibition @ 10 uM” value is recorded as -1.17%. Take `COc1ccc(NC(=O)CN(c2cc(C)ccc2C)S(C)(=O)=O)c(OC)c1`: the “% Inhibition @ 10 uM” value is -9.56%.

`CCOC(=O)C1=C(CN2CCN(c3ncccn3)CC2)NC(=O)NC1c1ccc(Cl)cc1` (stereo not shown): the “% Inhibition @ 10 uM” value is -1.03%. For `Cc1onc(-c2ccccc2Cl)c1C(=O)N1CCCC(C)C1` (stereo not shown), the “% Inhibition @ 10 uM” value is recorded as -9.66%.

In the case of `CCOC(=O)c1noc2ncnc(N(CCOC)Cc3ccco3)c12`, the “% Inhibition @ 10 uM” value was 5.92%.

In the case of `CCCCCO/C(O)=C1\C(C)=NC2=C(C(=O)CCC2)C1c1cccc(F)c1` (stereo not shown), the “% Inhibition @ 10 uM” value was -1.82%. As for `Cc1ccc(-c2cc(C(=O)N3CCCCC3)c3ccccc3n2)s1`, the figure is -2.48%; as for `Cc1cc(C)c2oc(C(=O)Nc3nnc(C)s3)cc(=O)c2c1`, -3.24%; as for `C/C(Nc1ccccc1C)=C1\C(=O)NC(=O)N(C)C1=O`, -1.06%. On to `Cc1nn(Cc2ccccc2Cl)c(C)c1NC(=O)c1cc(CC(C)C)on1`, for which the “% Inhibition @ 10 uM” value is on record as -3.12%. As to `CCCCN1CC23C=CC(O2)C(C(=O)O)C3C1=O` (stereo not shown), the “% Inhibition @ 10 uM” value is -3.49%. As for `Oc1cccc(-c2nc(O)c3c(n2)Oc2ccc4ccccc4c2C3)c1`, the figure is -2.84%. For `C=CCNC(=O)C(C)(C)Oc1ccc(Cl)cc1`, the “% Inhibition @ 10 uM” value is on record as -1.35%. Regarding `COCCCn1c(=O)c2sccc2n2c(CCCC(=O)N(C)Cc3ccccc3)nnc12`, the “% Inhibition @ 10 uM” value was -4.46%.

For the compound `COc1ccccc1NC(=O)c1ccc2c(c1)-c1ccccc1C2=O`, the “% Inhibition @ 10 uM” value is -2.47%. In the case of `O=C(O)CSc1ccc2cc(O)ccc2c1`, the “% Inhibition @ 10 uM” value was -1.8%. Take `COc1cc(NC(=O)c2cccnc2)c(OC)cc1Cl`: the “% Inhibition @ 10 uM” value is reported as -7.08%. On to `Cc1oc2ncn3nc(-c4ccc(F)cc4)nc3c2c1C`, for which the “% Inhibition @ 10 uM” value stood at 0.401%.

`C=C(C)[C@@H]1CC=C(CN2CCCC(CO)C2)CC1` (stereo partly shown): the “% Inhibition @ 10 uM” value was -8.55%. On to `O=S(=O)(c1ccc(Cl)c(S(=O)(=O)N2CCCC2)c1)N1CCCC1`, for which the “% Inhibition @ 10 uM” value is recorded as 5.84%.
